Counter-ions that a name gives are not always drawn. The full ranking holds about 2,800 compounds; the median of “cell viability relative to vehicle” is about 1.1, and the lowest 2% start at about 0.19. Some of the results follow.

This assay has as its system NCI-H2228 parental. The experiment in a line: cell viability relative to vehicle (fraction of vehicle); NCI-H2228 is an ALK-positive lung cancer line and DTP means drug-tolerant persister; higher = less growth inhibition. The settings on record: 100 nM; treatment time 6 days. In short, it runs like this:
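NCI-H2228 parental cells and drug-tolerant persister cells were plated in 384-well plates; the persisters had been generated with 1000 nM of a targeted drug over 13 days. One day later, the 3114-agent TargetMol anti-cancer compound library was added at 100 nM, with DMSO serving as vehicle. ATP was measured 6 days after that using the CellTiter-Glo 3D Cell Viability Assay. Values are cell viability expressed relative to vehicle-treated cells.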
On to `NC(=O)c1ccc(I)c([N+](=O)[O-])c1` [Iniparib], for which the cell viability worked out at 1.15. For `c1ccc(-c2oc3ncnc(NC[C@@H]4CCCO4)c3c2-c2ccccc2)cc1`, the cell viability is 1.06. With `C#C[C@]1(O)CC[C@H]2[C@@H]3CCC4=CC(=O)CC[C@@H]4[C@H]3C(=C)C[C@@]21CC` [Etonogestrel], the cell viability was 1.07. As for `O=C(O)c1cc(/N=N/c2ccc(S(=O)(=O)Nc3ccccn3)cc2)ccc1O` [Sulfasalazine], the cell viability came out at 0.845. As to `CCCCCCCCCCCCCCCC(=O)O` [Palmitic acid], the cell viability was found to be 1.02. For the compound `N#C/C(=C\c1ccc(O)c(O)c1)C(=O)NCCCc1ccccc1`, the cell viability is 1.05. As for `C/C(=C\C(=O)OCCCCCCCCC(=O)O)C[C@@H]1OC[C@H](C[C@@H]2O[C@H]2[C@@H](C)[C@H](C)O)[C@@H](O)[C@H]1O` [Mupirocin], the cell viability was found to be 1.29. On to `Cc1cn([C@H]2C[C@H](O)[C@@H](COP(=O)(O)OP(=O)(O)OP(=O)(O)O)O2)c(=O)[nH]c1=O` [Deoxythymidine triphosphate], for which the cell viability is 1.06.

As for `O=C(O)c1cc(N(Cc2ccccc2O)Cc2cc(O)ccc2O)ccc1O` [lavendustin A], the cell viability stood at 0.845. Take `COc1ccc(S(=O)(=O)N(Cc2cccnc2)[C@@H](C(=O)NO)C(C)C)cc1`: the cell viability came out at 1.12. With `COc1ccc(C2=N[C@@H](c3ccc(Cl)cc3)[C@@H](c3ccc(Cl)cc3)N2C(=O)N2CCNC(=O)C2)c(OC(C)C)c1` [Nutlin-3a] the figure was 1.03; with `COc1ccc(C2=N[C@@H](c3ccc(Cl)cc3)[C@@H](c3ccc(Cl)cc3)N2C(=O)N2CCNC(=O)C2)c(OC(C)C)c1` [Nutlin3], 1.1; with `CN/C(=N\CCSCc1nc[nH]c1C)NC#N` [Cimetidine], 1.07. Regarding `COc1ccc2cc([C@H](C)C(=O)O)ccc2c1` [Naproxen], the cell viability came out at 0.992. As for `O=[N+]([O-])c1ccc(Nc2ccccc2-c2ccccc2)c2nonc12`, the cell viability was found to be 0.948. For the compound `C[C@]12CCC(=O)C=C1[C@@H]1C[C@@H]1[C@H]1[C@@H]3[C@@H]4C[C@@H]4[C@@]4(CCC(=O)O4)[C@@]3(C)CC[C@@H]12` [Drospirenone], the cell viability turned out to be 1.22. For `COc1ccc2c3ccnc4ccc(=O)n(c2c1)c43` [9-Methoxycanthin-6-one] the value was 1.03; for `Nc1cc(N2CCCCC2)nc(N)[n+]1[O-]` [Minoxidil], 1.14.

Consider `OCCn1cc(-c2cnc3nnn(Cc4ccc5ncccc5c4)c3n2)cn1`, for which the cell viability was found to be 1.04.

`CC1=C(/C=C/C(C)=C/C=C/C(C)=C/CO)C(C)(C)CCC1` [Retinol]: the cell viability stood at 1.07. Consider `C/C=C(/C(=C/C)c1ccc(O)cc1)c1ccc(O)cc1` [Dienestrol], for which the cell viability came to 1.15.

`O=C(O)c1ccccc1OP(=O)(O)O` [Fosfosal]: the cell viability worked out at 1.23. With `Cc1ccc(C(=O)Nc2ccc(CN3CCN(C)CC3)c(C(F)(F)F)c2)cc1C#Cc1cnc2[nH]ncc2c1` [GZD824 Dimesylate] the figure was 0.574; with `Cc1ccc(C(=O)Nc2ccc(CN3CCN(C)CC3)c(C(F)(F)F)c2)cc1C#Cc1cnc2[nH]ncc2c1`, 0.73. Regarding `Oc1ccc(-c2nc(-c3ccc(F)cc3)c(-c3ccncc3)[nH]2)cc1`, the cell viability was 1.19. Turning to `O=C(NC[C@H](O)CO)c1ccncc1Nc1ccc(I)cc1F` [Pimasertib], the cell viability turned out to be 0.86. As for `O=C(O)c1ccc2cc(-c3ccc(O)c(C45CC6CC(CC(C6)C4)C5)c3)ccc2c1`, the cell viability was found to be 0.292.

Consider `CC1(C)S[C@@H]2[C@H](NC(=O)[C@H](N)c3ccccc3)C(=O)N2[C@H]1C(=O)O` [Ampicillin sodium], for which the cell viability was 1.11. For `C=C[C@H]1CN2CC[C@H]1C[C@H]2[C@H](O)c1ccnc2ccc(OC)cc12` [Quinine], the cell viability is 1.09. Regarding `O=C(O)c1cc(=O)[nH]c(=O)[nH]1` [Orotic acid], the cell viability came out at 1. `O=c1n(CCCN2CCN(c3cccc(Cl)c3)CC2)nc2ccccn12` [Trazodone hydrochloride]: the cell viability is 1.05. On to `CC(=O)NCCCCCC(=O)O` [Acexamic Acid], for which the cell viability was 1.08.

As for `Cc1ccccc1C(C(=O)NC1CCCCC1)N(C(=O)Cn1ccnc1C)c1cccc(F)c1` (stereo not given), the cell viability came out at 1.26. On to `O=C(CCNNC(=O)c1ccncc1)NCc1ccccc1` [Nialamide], for which the cell viability amounted to 1.37. In the case of `Cc1cnc(-c2ccccc2C(C)C)nc1NCc1ccc(-n2ccnn2)cc1`, the cell viability came to 1. With `Nc1ccc(-c2ccc3ncc4ccc(=O)n(-c5cccc(C(F)(F)F)c5)c4c3c2)cn1` [Torin 2], the cell viability stood at 0.218. With `Cc1ccccc1N1CCN(CCc2nnc3n2CCCC3)CC1` [Dapiprazole Hydrochloride] the figure was 1.08; with `CSc1nc2cc(Cl)c(Oc3cccc(Cl)c3Cl)cc2[nH]1` [Triclabendazole], 1.19. In the case of `CCCCCCCCCCCCCCCCn1cc[n+](Cc2ccccc2)c1C`, the cell viability came to 0.938. Turning to `O=C1[C@@H]2[C@H]3CC[C@H](C3)[C@@H]2C(=O)N1C[C@@H]1CCCC[C@H]1CN1CCN(c2nsc3ccccc23)CC1` [Lurasidone hydrochloride], the cell viability came out at 0.925. With `Cn1cnc2c(F)c(Nc3ccc(Br)cc3F)c(C(=O)NOCCO)cc21` [Binimetinib], the cell viability worked out at 0.83. `CC[C@H](CC#N)OC(=O)N[C@@H](C)c1cccc(NC(=O)Nc2ccc(-c3cnco3)c(OC)c2)c1`: the cell viability was determined as 0.498.

As for `Nc1ccc(-c2cnc(N)c(-c3ccc(Cl)cc3)c2)cn1`, the cell viability worked out at 1.1.

Consider `COc1cc2nc(N3CCCC3)nc(NCCCCCN3CCCC3)c2cc1OC`, for which the cell viability worked out at 1.16. Regarding `CC(=O)O[C@H]1C(=O)[C@@]2(C)[C@H]([C@H](OC(=O)c3ccccc3)[C@]3(O)C[C@H](OC(=O)[C@H](O)[C@@H](NC(=O)c4ccccc4)c4ccccc4)C(C)=C1C3(C)C)[C@]1(OC(C)=O)CO[C@@H]1C[C@@H]2O` [Paclitaxel], the cell viability was 0.128. As for `CN1CCC(Nc2nc(Nc3ccc(Oc4ccccc4)cc3)c3c(=O)[nH]cc(Br)c3n2)CC1`, the cell viability is 1.06.

Consider `COc1cccc2c1C(=O)c1c(O)c3c(c(O)c1C2=O)C[C@@](O)(C(=O)CO)C[C@@H]3O[C@H]1C[C@H](N)[C@@H](O)[C@H](C)O1` [Epirubicin hydrochloride], for which the cell viability turned out to be 0.246. As for `CC(=O)O/N=C1/C(c2c(O)[nH]c3cc(Br)ccc23)=Nc2ccccc21` [BIO-acetoxime], the cell viability came to 0.994. For `C=C(C)[C@@H]1CC[C@]2(CO)CC[C@]3(C)[C@H](CC[C@@H]4[C@@]5(C)CC[C@H](O)C(C)(C)[C@@H]5CC[C@]43C)[C@@H]12` [Betulin] the value was 1.04. In the case of `COC(=O)C[C@](O)(CCCC(C)(C)O)C(=O)O[C@@H]1C(OC)=C[C@]23CCCN2CCc2cc4c(cc2[C@H]13)OCO4` [Homoharringtonine], the cell viability worked out at 0.162. For `C[C@@H](O)[C@H]1C(=O)N2C(C(=O)O)=C(S[C@@H]3CN[C@H](C(=O)Nc4cccc(C(=O)O)c4)C3)[C@H](C)[C@H]12` [Ertapenem sodium] the value was 1.06. As for `Nc1ccc(S(=O)(=O)NC(=O)c2ccccc2)cc1` [Sulfabenzamide], the cell viability was 0.908. For the compound `CC(=O)c1ccc(NC2=C(Cl)C(=O)c3ccccc3C2=O)cc1`, the cell viability was 1.08.

With `CC(C)c1nc(N(C)S(C)(=O)=O)nc(-c2ccc(F)cc2)c1/C=C/[C@@H](O)C[C@@H](O)CC(=O)O` [Rosuvastatin], the cell viability amounted to 1.21.

`O=C(COc1cccc2c(=O)[nH]ccc12)c1ccccc1`: the cell viability came to 1.14. As to `CC(C)=CCC[C@](C)(O)[C@H]1CC[C@]2(C)[C@@H]1[C@H](O)C[C@@H]1[C@@]3(C)CC[C@H](O[C@@H]4O[C@H](CO)[C@@H](O)[C@H](O)[C@H]4O[C@@H]4O[C@H](CO)[C@@H](O)[C@H](O)[C@H]4O)C(C)(C)[C@@H]3CC[C@]12C` [Ginsenoside Rg3], the cell viability worked out at 1.12. In the case of `CCNC(=O)[C@H]1O[C@@H](n2cnc3c(N)nc(NCCc4ccc(CCC(=O)O)cc4)nc32)[C@H](O)[C@@H]1O`, the cell viability is 1.15. As to `Cn1cc(-c2cnn3c(N)c(Br)c([C@H]4CCCNC4)nc23)cn1`, the cell viability is 0.968. With `CCN(CC)CCCC(C)Nc1ccnc2cc(Cl)ccc12` (stereo not given) [Chloroquine diphosphate] the figure was 1.09; with `CC1=C(C(=O)Nc2ccc3[nH]ncc3c2)C(c2ccc(F)c(C(=O)NCc3ccccn3)c2)NC(=O)N1` (stereo not given), 1.04; with `CC(C)OC(=O)C(C(=O)OC(C)C)=C1SC=CS1` [Malotilate], 0.95. As to `CC(C)NC(=O)COc1cccc(-c2nc(Nc3ccc4[nH]ncc4c3)c3ccccc3n2)c1`, the cell viability was found to be 1.11.

Take `C[C@@H](O)[C@H]1C(=O)N2C(C(=O)O)=C(SCCNC=N)C[C@H]12` [Imipenem]: the cell viability was 1.04. As for `CCOc1cc(N2CCC(O)CC2)ccc1Nc1ncc2c(n1)N(C1CCCC1)CCC(=O)N2C`, the cell viability came to 1.15. In the case of `C=C(C)[C@@H]1CC[C@]2(C(=O)O)CC[C@]3(C)[C@H](CC[C@@H]4[C@@]5(C)CC[C@H](O)C(C)(C)[C@@H]5CC[C@]43C)[C@@H]12` [Betulinic acid], the cell viability stood at 1.02. For `O=c1ccc2cc3ccoc3cc2o1` [Psoralen] the value was 1.12.

Turning to `Oc1ccc2c(c1)OC[C@]1(O)Cc3cc(O)c(O)cc3[C@H]21` [Brazilin], the cell viability worked out at 0.94.

On to `CCS(=O)(=O)Nc1ccc(Oc2ccc(F)cc2F)c(-c2cn(C)c(=O)c3[nH]ccc23)c1` [Mivebresib], for which the cell viability worked out at 0.763. On to `CCCCCN(C)CCC(O)(P(=O)(O)O)P(=O)(O)O` [Ibandronate sodium], for which the cell viability is 1.04. `O=C(COc1c(Cl)cc(Cl)cc1Cl)N/N=C/c1ccc[nH]1`: the cell viability is 1.08.

Regarding `CONC(=O)c1ccccc1Nc1cc(Nc2cc(C)nn2C(C)C)ncc1Cl`, the cell viability worked out at 0.962. For `COc1cc2c(c(OC)c1OC)-c1c(cc3c(c1OC)OCO3)C[C@H](C)[C@](C)(O)C2` [Gomisin A], the cell viability worked out at 0.967. On to `OC[C@@H](O)[C@@H](O)[C@H](O)[C@H](O)CO` [D-Mannitol], for which the cell viability came to 1.13. As to `CC(=O)OCC(=O)NCCCOc1cccc(CN2CCCCC2)c1` [Roxatidine Acetate hydrochloride], the cell viability amounted to 1.02. As to `CCCCCCCCC(=O)N[C@H](CN1CCCC1)[C@H](O)c1ccc2c(c1)OCCO2`, the cell viability was 1.1.
